According to PMC12678687:
Results are given in words; binding and its absence hold for the method and conditions named. In cells and extracts the contact can be indirect. Some entries that bind do so weakly or less than the wild type. Sequences can lack the tags named with a protein.

Tests used:
Assay in all cases: co-IP; PXL1-FLAG and BSL1/2/3-GFP co-expressed in Nicotiana benthamiana; total protein immunoprecipitated with anti-GFP beads; blots with anti-FLAG and anti-GFP
[1] = target: T1, BSL3-GFP (Arabidopsis thaliana) (UniProt Q9SHS7)
T1 sequence: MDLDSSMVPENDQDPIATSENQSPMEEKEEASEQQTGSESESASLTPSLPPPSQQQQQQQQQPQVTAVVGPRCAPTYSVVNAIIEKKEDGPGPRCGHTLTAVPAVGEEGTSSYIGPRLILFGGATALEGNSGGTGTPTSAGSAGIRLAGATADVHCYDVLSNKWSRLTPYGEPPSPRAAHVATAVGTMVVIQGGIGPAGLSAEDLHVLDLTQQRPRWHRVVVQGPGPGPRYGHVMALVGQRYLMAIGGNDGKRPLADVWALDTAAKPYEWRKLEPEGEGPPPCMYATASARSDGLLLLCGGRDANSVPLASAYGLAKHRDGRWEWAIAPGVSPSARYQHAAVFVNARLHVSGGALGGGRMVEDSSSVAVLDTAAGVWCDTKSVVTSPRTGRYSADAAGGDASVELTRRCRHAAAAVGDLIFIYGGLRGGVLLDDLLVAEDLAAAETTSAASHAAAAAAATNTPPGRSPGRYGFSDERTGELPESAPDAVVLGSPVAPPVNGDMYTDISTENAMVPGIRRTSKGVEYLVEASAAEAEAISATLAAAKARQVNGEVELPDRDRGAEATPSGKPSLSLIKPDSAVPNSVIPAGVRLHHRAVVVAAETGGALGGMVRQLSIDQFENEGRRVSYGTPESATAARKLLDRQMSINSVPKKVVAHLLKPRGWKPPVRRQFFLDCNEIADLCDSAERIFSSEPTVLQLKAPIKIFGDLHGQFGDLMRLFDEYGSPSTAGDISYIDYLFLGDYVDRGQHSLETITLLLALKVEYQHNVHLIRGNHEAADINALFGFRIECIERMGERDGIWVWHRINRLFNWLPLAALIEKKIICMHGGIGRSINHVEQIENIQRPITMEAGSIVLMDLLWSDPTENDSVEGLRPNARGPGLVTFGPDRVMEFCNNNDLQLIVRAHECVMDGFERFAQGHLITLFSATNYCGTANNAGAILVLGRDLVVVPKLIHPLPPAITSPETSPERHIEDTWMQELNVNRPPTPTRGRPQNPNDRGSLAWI

[2] = target: T2, BSL2-GFP (Arabidopsis thaliana) (UniProt Q9SJF0)
T2 sequence: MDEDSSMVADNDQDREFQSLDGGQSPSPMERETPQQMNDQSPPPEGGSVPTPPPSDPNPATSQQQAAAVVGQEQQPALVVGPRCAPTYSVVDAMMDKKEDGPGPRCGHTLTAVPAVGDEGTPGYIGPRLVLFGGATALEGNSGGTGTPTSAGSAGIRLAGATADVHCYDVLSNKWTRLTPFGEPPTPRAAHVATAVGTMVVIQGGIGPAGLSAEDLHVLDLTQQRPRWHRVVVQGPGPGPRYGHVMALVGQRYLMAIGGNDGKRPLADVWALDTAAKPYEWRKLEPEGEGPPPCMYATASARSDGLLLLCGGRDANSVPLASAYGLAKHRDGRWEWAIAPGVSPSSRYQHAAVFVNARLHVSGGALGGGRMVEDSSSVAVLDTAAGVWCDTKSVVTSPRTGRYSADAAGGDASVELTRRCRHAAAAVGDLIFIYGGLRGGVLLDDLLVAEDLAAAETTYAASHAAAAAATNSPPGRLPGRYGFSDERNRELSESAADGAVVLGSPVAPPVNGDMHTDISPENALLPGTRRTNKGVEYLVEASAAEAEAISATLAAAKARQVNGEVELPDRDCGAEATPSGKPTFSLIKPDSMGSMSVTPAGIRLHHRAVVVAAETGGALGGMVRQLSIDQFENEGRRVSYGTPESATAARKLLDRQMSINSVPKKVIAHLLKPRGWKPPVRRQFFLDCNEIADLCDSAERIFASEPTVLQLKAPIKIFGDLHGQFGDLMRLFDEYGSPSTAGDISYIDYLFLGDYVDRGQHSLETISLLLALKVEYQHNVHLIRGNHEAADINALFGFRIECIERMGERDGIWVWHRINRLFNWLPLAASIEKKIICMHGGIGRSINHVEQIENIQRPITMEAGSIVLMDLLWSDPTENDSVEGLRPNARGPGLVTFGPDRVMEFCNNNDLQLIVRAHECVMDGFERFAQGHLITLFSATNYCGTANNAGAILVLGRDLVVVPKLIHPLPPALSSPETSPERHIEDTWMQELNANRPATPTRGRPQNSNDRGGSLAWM

[3] = target: T3, BSL1-GFP (Arabidopsis thaliana) (UniProt Q8L7U5)
T3 sequence: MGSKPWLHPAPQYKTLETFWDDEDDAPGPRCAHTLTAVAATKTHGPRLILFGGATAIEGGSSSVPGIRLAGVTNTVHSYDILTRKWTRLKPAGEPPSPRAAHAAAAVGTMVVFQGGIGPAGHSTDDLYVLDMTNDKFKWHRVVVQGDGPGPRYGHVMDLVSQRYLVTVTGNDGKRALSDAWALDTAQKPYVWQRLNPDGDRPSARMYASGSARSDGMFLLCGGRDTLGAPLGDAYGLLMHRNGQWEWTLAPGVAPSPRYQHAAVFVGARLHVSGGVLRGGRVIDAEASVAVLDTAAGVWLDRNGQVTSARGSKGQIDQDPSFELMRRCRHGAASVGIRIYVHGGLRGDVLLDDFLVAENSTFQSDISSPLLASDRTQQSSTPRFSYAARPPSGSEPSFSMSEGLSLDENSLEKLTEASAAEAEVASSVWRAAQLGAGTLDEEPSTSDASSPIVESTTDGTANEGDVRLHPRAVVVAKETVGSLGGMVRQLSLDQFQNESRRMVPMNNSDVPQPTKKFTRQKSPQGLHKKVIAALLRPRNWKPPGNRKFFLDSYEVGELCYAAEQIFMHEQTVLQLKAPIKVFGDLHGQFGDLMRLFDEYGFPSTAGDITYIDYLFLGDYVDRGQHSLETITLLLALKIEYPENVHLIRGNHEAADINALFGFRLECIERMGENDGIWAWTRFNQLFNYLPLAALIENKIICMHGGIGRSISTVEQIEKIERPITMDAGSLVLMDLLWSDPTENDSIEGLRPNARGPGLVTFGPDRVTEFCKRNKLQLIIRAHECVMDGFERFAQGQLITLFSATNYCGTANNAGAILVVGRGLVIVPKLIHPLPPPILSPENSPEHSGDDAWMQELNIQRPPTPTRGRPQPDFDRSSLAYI

Measured: binding

B1: PXL1-FLAG expressed in Nicotiana benthamiana (receptor, UniProt Q9FRS6 24-1029)
chain: ETFQNSEQEILLAFKSDLFDPSNNLQDWKRPENATTFSELVHCHWTGVHCDANGYVAKLLLSNMNLSGNVSDQIQSFPSLQALDLSNNAFESSLPKSLSNLTSLKVIDVSVNSFFGTFPYGLGMATGLTHVNASSNNFSGFLPEDLGNATTLEVLDFRGGYFEGSVPSSFKNLKNLKFLGLSGNNFGGKVPKVIGELSSLETIILGYNGFMGEIPEEFGKLTRLQYLDLAVGNLTGQIPSSLGQLKQLTTVYLYQNRLTGKLPRELGGMTSLVFLDLSDNQITGEIPMEVGELKNLQLLNLMRNQLTGIIPSKIAELPNLEVLELWQNSLMGSLPVHLGKNSPLKWLDVSSNKLSGDIPSGLCYSRNLTKLILFNNSFSGQIPEEIFSCPTLVRVRIQKNHISGSIPAGSGDLPMLQHLELAKNNLTGKIPDDIALSTSLSFIDISFNHLSSLSSSIFSSPNLQTFIASHNNFAGKIPNQIQDRPSLSVLDLSFNHFSGGIPERIASFEKLVSLNLKSNQLVGEIPKALAGMHMLAVLDLSNNSLTGNIPADLGASPTLEMLNVSFNKLDGPIPSNMLFAAIDPKDLVGNNGLCGGVLPPCSKSLALSAKGRNPGRIHVNHAVFGFIVGTSVIVAMGMMFLAGRWIYTRWDLYSNFAREYIFCKKPREEWPWRLVAFQRLCFTAGDILSHIKESNIIGMGAIGIVYKAEVMRRPLLTVAVKKLWRSPSPQNDIEDHHQEEDEEDDILREVNLLGGLRHRNIVKILGYVHNEREVMMVYEYMPNGNLGTALHSKDEKFLLRDWLSRYNVAVGVVQGLNYLHNDCYPPIIHRDIKSNNILLDSNLEARIADFGLAKMMLHKNETVSMVAGSYGYIAPEYGYTLKIDEKSDIYSLGVVLLELVTGKMPIDPSFEDSIDVVEWIRRKVKKNESLEEVIDASIAGDCKHVIEEMLLALRIALLCTAKLPKDRPSIRDVITMLAEAKPRRKSVCQVAGDLPIFRNSPVVGLI
binds: [1] | [2] | [3]
